Data: the supplement of paper PMC12217912
This is one part of the list. The full chains were built here from the parent and the listed change. Inactive controls read about 0.05.

B1: TEV protease; numbered along this chain (parent)
chain: MGESLFKGPRDYNPISSSICHLTNESDGHTTSLYGIGFGPFIITNKHLFRRNNGTLVVQSLHGVFKVKDTTTLQQHLVDGRDMIIIRMPKDFPPFPQKLKFREPQREERICLVTTNFQTKSMSSMVSDTSCTFPSGDGIFWKHWIQTKDGQCGSPLVSTRDGFIVGIHSASNFTNTNNYFTSVPKNFMELLTNQEAQQWVSGWRLNADSVLWGGHKVFMVKPEEPFQPVKEATQL

Variants of: B1
Assay: raw area under fraction-flipped curve 0-4 h after induction (AUC4h, not background-subtracted), DNA-recorder readout of cleavage of the substrate (dimensionless); higher = more cleavage of the substrate by the protease variant
Settings: temperature: 34 °C; time window: 0-4 h after rhamnose induction
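Also: Bxb1 expression induced with 0.2% (w/v) L-rhamnose at OD600 near 0.5, cultures sampled hourly, flipped fraction per protease–substrate barcode pair counted by paired-end Illumina sequencing.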

| Variant | area with substrate ENLYFQC | area with substrate ENLYFQD | area with substrate ENLYFQG | area with substrate ENLYFQM | area with substrate ENLYFQN | area with substrate ENLYFQR | area with substrate ENLYFQS | area with substrate ENLYFQV | area with substrate ENLYFQY | area with substrate ENLYFQK | area with substrate ENLYFQL | area with substrate ENLYFQW | area with substrate ENLYFQH | area with substrate ENLYFQP | area with substrate ENLYFQT | area with substrate ENLYFQE | area with substrate ENLYFQF | area with substrate ENLYFQQ | area with substrate ENLYFQI |
| --- | --- | --- | --- | --- | --- | --- | --- | --- | --- | --- | --- | --- | --- | --- | --- | --- | --- | --- | --- |
| L235V | 0.127 | 0.062 | 0.0875 | 0.0484 | 0.0938 | 0.0585 | 0.0953 | 0.0811 | 0.0856 |  |  |  |  |  |  |  |  |  |  |
| V165Q | 0.0494 | 0.0471 |  | 0.047 | 0.058 | 0.0506 | 0.0535 |  | 0.0466 | 0.0353 | 0.0412 | 0.0531 |  |  |  |  |  |  |  |
| S209M | 0.114 | 0.072 | 0.0931 | 0.064 |  | 0.0424 | 0.0992 |  |  |  | 0.0568 |  | 0.0756 | 0.0589 | 0.0586 |  |  |  |  |
| F95E | 0.0536 |  | 0.115 | 0.0558 | 0.0403 | 0.0499 | 0.0521 |  | 0.0554 | 0.0541 | 0.0422 |  | 0.0254 | 0.0611 | 0.0504 | 0.0568 | 0.0572 |  |  |
| E189Q | 0.103 |  | 0.0806 | 0.0925 |  | 0.0702 | 0.0978 | 0.0513 |  | 0.0825 | 0.0706 | 0.0661 |  | 0.0527 | 0.0702 |  | 0.088 | 0.114 |  |
| R81Q | 0.109 |  |  | 0.0715 | 0.0717 | 0.0764 | 0.089 | 0.0479 |  |  |  |  |  | 0.0576 |  |  |  |  |  |
| F180Y | 0.144 |  | 0.109 | 0.107 | 0.0699 | 0.0381 | 0.0994 |  | 0.0818 | 0.0754 |  |  | 0.0909 |  | 0.069 | 0.103 |  |  |  |
| D27H | 0.0694 |  | 0.0639 | 0.0668 | 0.0775 |  | 0.092 |  | 0.0811 |  | 0.073 | 0.062 |  | 0.0585 |  |  |  |  | 0.0667 |
| A170N | 0.0702 |  |  |  |  |  | 0.059 | 0.0322 |  |  |  | 0.05 | 0.0647 |  | 0.065 |  |  |  |  |
| N53P | 0.0851 | 0.0701 | 0.0762 |  |  |  | 0.0789 |  |  |  | 0.0602 | 0.06 |  |  | 0.0707 |  |  | 0.0595 | 0.0509 |
| C131A | 0.108 | 0.0949 |  |  | 0.084 |  | 0.102 |  |  |  |  | 0.0628 |  |  | 0.0691 |  |  |  |  |
| D149A | 0.0999 |  | 0.0669 | 0.0749 | 0.0596 | 0.069 | 0.1 | 0.067 | 0.0678 |  | 0.0626 |  |  |  | 0.053 |  | 0.0409 | 0.0629 | 0.066 |
| F173V | 0.112 | 0.0784 |  | 0.0672 | 0.0779 | 0.0481 | 0.105 |  |  | 0.0589 | 0.0494 | 0.0695 | 0.074 | 0.0594 |  | 0.0536 |  | 0.0624 | 0.0547 |
| N172D | 0.0943 | 0.0736 | 0.0789 | 0.0612 |  | 0.0587 | 0.0857 | 0.0578 | 0.0756 |  | 0.0505 |  | 0.0512 | 0.0495 |  |  |  | 0.0584 |  |
| I145A | 0.172 |  |  |  | 0.0879 | 0.0671 | 0.118 |  |  | 0.0455 | 0.051 |  |  |  | 0.0725 |  | 0.0755 |  |  |
| K185Y | 0.126 | 0.0735 | 0.104 | 0.108 | 0.0796 | 0.056 | 0.107 | 0.0915 |  | 0.0441 | 0.0537 | 0.0701 | 0.0914 | 0.0632 | 0.0775 |  |  | 0.0741 |  |

| Variant | area with substrate ENLYFQC | area with substrate ENLYFQD | area with substrate ENLYFQG | area with substrate ENLYFQM | area with substrate ENLYFQN | area with substrate ENLYFQR | area with substrate ENLYFQS | area with substrate ENLYFQV | area with substrate ENLYFQY | area with substrate ENLYFQK | area with substrate ENLYFQL | area with substrate ENLYFQW | area with substrate ENLYFQH | area with substrate ENLYFQP | area with substrate ENLYFQT | area with substrate ENLYFQE | area with substrate ENLYFQF | area with substrate ENLYFQQ | area with substrate ENLYFQI |
| --- | --- | --- | --- | --- | --- | --- | --- | --- | --- | --- | --- | --- | --- | --- | --- | --- | --- | --- | --- |
| Q74L | 0.108 |  | 0.0977 |  | 0.0626 | 0.0776 | 0.1 |  | 0.0917 |  |  | 0.0697 |  |  |  |  |  | 0.0709 | 0.0547 |
| T115I | 0.112 | 0.0732 |  | 0.111 |  | 0.0641 | 0.0983 |  | 0.0837 |  | 0.0549 |  | 0.0783 | 0.0662 | 0.0641 |  |  |  | 0.0557 |
| R51D | 0.135 |  |  |  | 0.0947 | 0.0662 | 0.11 |  |  | 0.0681 |  |  |  |  |  |  | 0.0377 |  |  |
| F226L | 0.116 | 0.0604 | 0.109 | 0.117 | 0.0817 | 0.0523 | 0.11 | 0.0056 | 0.0853 | 0.0611 | 0.071 |  | 0.0928 | 0.0622 |  |  | 0.0569 |  | 0.062 |
| S135T | 0.0918 |  | 0.0778 |  | 0.0653 | 0.0737 | 0.0885 |  | 0.0633 | 0.0555 | 0.0593 | 0.0589 | 0.0571 | 0.0725 | 0.0545 |  |  | 0.0618 |  |
| V58W | 0.0736 |  |  | 0.0681 |  |  | 0.0683 | 0.0352 |  |  |  |  |  |  |  |  |  |  | 0.0474 |
| W212I | 0.166 |  | 0.13 | 0.113 | 0.105 | 0.0472 | 0.137 | 0.0608 |  | 0.0639 | 0.072 |  | 0.0999 | 0.0996 | 0.0644 |  |  |  | 0.0588 |
| G214I | 0.092 |  | 0.08 | 0.0474 | 0.0829 |  | 0.08 |  |  | 0.0711 | 0.0376 |  |  |  |  |  |  | 0.0809 | 0.0614 |
| P9D | 0.106 |  | 0.0785 | 0.0979 | 0.0552 | 0.0495 | 0.0995 |  |  | 0.064 | 0.0588 |  | 0.118 | 0.0358 |  |  |  |  |  |
| W199K | 0.0676 |  |  |  |  | 0.0561 | 0.072 |  | 0.0752 |  | 0.06 |  |  |  |  |  |  |  | 0.0642 |
| W141K | 0.0545 |  | 0.0966 | 0.0546 |  | 0.061 | 0.0568 | 0.0544 |  |  |  |  |  |  | 0.0553 | 0.0605 | 0.0454 | 0.0328 | 0.0623 |
| M83H | 0.0605 | 0.0531 | 0.0524 | 0.0559 | 0.0597 | 0.0693 | 0.0568 |  | 0.063 |  | 0.0532 | 0.0601 | 0.0508 |  | 0.0511 | 0.0644 | 0.0596 | 0.0572 | 0.0506 |
| H143S | 0.085 | 0.0595 | 0.138 |  | 0.0904 |  | 0.0921 | 0.055 | 0.0519 | 0.0648 | 0.0405 | 0.0507 | 0.0806 | 0.0593 | 0.0629 |  |  |  | 0.0327 |
| F218C | 0.114 |  | 0.0986 | 0.051 | 0.073 |  | 0.103 | 0.0586 |  | 0.059 | 0.0582 |  |  |  |  |  | 0.0449 | 0.0716 |  |
| E108K | 0.124 |  |  |  | 0.0641 | 0.0519 | 0.0602 | 0.0528 | 0.0592 |  | 0.0646 | 0.0627 | 0.0468 | 0.0519 | 0.0662 |  | 0.0413 |  |  |
| I84L | 0.0869 | 0.0657 | 0.0959 | 0.0747 |  | 0.0706 | 0.0903 |  |  | 0.0486 |  |  | 0.0678 |  | 0.0755 |  |  | 0.0655 |  |
